Data from paper PMC12136788.
This is one part of the list.

T1: UNK ZnF1-3 (human, UniProt Q9C0B0 31-174)
T1 sequence: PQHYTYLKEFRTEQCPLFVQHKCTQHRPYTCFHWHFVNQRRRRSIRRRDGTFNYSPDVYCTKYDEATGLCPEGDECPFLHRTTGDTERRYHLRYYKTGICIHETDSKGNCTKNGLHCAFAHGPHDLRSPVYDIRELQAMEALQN

B1: chr6:38652254:38652255:-_ENSG00000124767_ENST00000373365|hu_hu|hu_hu_hu_mus_False|78_98 (ssRNA)
RNA: GGGAGUUCUACAGUCCGACGAUCCGAGAACUUCAUAAUGGGAAAAUCAAGCUUCUGGAUUAGCGUCAGUCCAAGAACCCUCGUAUAAAAAUCCAGGGACUUCUUAGGAUCCUUAAUUCUUAGCAUCGUUUGCUGCAGUAGAAACAACAGAGGAUUGAGCAUCA
B2: chr19:60011576:60011577:-_ENSMUSG00000040022_ENSMUST00000171986|mus_hu|motif|central (ssRNA)
RNA: GGGAGUUCUACAGUCCGACGAUCUUUUGCUGUAAAUGGAUUGGUUGACUCAUAAUCAAAAUAGUCCUGGCGAUUUUCACGGAAUGCAUUAGGUGAUUUCAAGUCACAAGGGCUAUCAGAUCCCCCAUUGUUAAGUUUAUCAGACAACAGAGGAUUGAGCAUCA
B3: chr7:878492:878493:+_ENSG00000164828_ENST00000456758|hu_mus|FALSE|FALSE (ssRNA)
RNA: GGGAGUUCUACAGUCCGACGAUCCGAAUCAAUAGCCUGGCUGUCCCCACUGCUGUACGAAGCUGUUGUGACCAGACGCAAGCUGCGGCGGGACAUCCUUGGAGAGUCAAAUACAGGUUCCAACUUGUGCUCAGUUUCAAAAUCCAACAGAGGAUUGAGCAUCA
B4: 27889102_27889222_2550_3pUTR_ENSMUSG00000056692_ENSMUST00000114859|mouse|control|control (ssRNA)
RNA: GGGAGUUCUACAGUCCGACGAUCUCUGGAGACAAGCAGCUCCGAGGCCAGAAGCAGGAAGAAUGGCUGGGCAUGCAUGUGCUCUAGGGUGGCAGCGUCCUCAGAGACUGGCCCCAAGAAGGUCCUCAGACAAAAGCCCCCUGACAACAGAGGAUUGAGCAUCA
B5: chr5:145543945:145543946:-_ENSG00000133706_ENST00000545646|hu_hu|hu_hu_hu_mus_True|18_108 (ssRNA)
RNA: GGGAGUUCUACAGUCCGACGAUCCUGAAUAGCCAGUGGUGGGAAAUAAUCAAGCCAGUGCUCUGCUUCAGAAAACUUCACUAUGUCGUCAUCAGAGAGCCCAAGGGAUUUCAUAAUGCCCCACUGGUACUUAGAAGAUCCUGCCAACAGAGGAUUGAGCAUCA
B6: chr1:94943820:94943821:+_ENSG00000117528_ENST00000370214|hu_hu|motif|central (ssRNA)
RNA: GGGAGUUCUACAGUCCGACGAUCCGCUGGGCCCUGAGCUCCAAUUGCACUCGUUAACUUAAAGAUAUACAAAACGGUGUCGGAAAAUGGCUUACUAAGAUUUGAAUACAGAUCGACUACACUGUUACAAAAUUUUUCUACAUCCAACAGAGGAUUGAGCAUCA
B7: chr2:60072280:60072281:+_ENSMUSG00000026977_ENSMUST00000102748|mus_hu|FALSE|FALSE (ssRNA)
RNA: GGGAGUUCUACAGUCCGACGAUCUCUUCGUGAAAAAAAAGUAGAUGACAUGCUAGAAGCUAUGCGUGACAGCAAUCUCCUCGUUGUCCGCCUACCUUCAUUGUCAGAAGAUUCUUGAAAUGGUCUUUGAGAUGAAACAACCCUCAACAGAGGAUUGAGCAUCA
B8: chr7:44244176:44244177:+_ENSG00000106636_ENST00000223369|hu_mus|hu_hu_hu_mus_False|1_48 (ssRNA)
RNA: GGGAGUUCUACAGUCCGACGAUCACUGUCGCUCCGGACGUAGACAUGGCAAAGAUACUCUUGUUCUUUGACAGAAGCUCUGCUGCCUUUCGAUGAGCGUUCCACAAUCAGUUGACUUGUAAAGGUCAUGAAUUCCUGAACGCUCAACAGAGGAUUGAGCAUCA
B9: 171546587_171546707_2472_CDS_ENSG00000117523_ENST00000495585|human|control|control (ssRNA)
RNA: GGGAGUUCUACAGUCCGACGAUCUUAACUGUGAAAAAUGACUUGCAGAAGGCAGGCUGCUUGUCUGUAACUGCUGAGGUUUCACUUUACAAAUAUUUGGAGGGUCCGAUGUGGUUGUAGAUUUUGUGCUCAAAGAAGAGGUAGCAACAGAGGAUUGAGCAUCA
B10: chr4:88366126:88366127:-_ENSMUSG00000070923_ENSMUST00000094993|mus_mus|FALSE|FALSE (ssRNA)
RNA: GGGAGUUCUACAGUCCGACGAUCUGCUGAAAGAGGUGAUUCUCUAGAAGGUGACCCAGGGUUUUCUUCAGGUGGAAAAACUGUGAGAGUGCAAGCCCGAAUGCCACCCAGCGACUCAGGAAGAUCAAAAACUUUAUGCCACUCCAACAGAGGAUUGAGCAUCA
B11: chr4:81121375:81121376:+_ENSG00000152784_ENST00000415738|hu_mus|FALSE|FALSE (ssRNA)
RNA: GGGAGUUCUACAGUCCGACGAUCUACCCGGAAGAUGUAAGGUACUGUUCUCUUGUCCGUGGACUUGAGGGCUACGAAGGCUAUGCUGUCAUACAGGGAAGUAUGGCUCAGUACACAGGGACCGAAUAUGGCGUUCUCUGGGAUCAACAGAGGAUUGAGCAUCA
B12: 88157618_88157738_1641_3pUTR_ENSMUSG00000069769_ENSMUST00000107909|mouse|control|control (ssRNA)
RNA: GGGAGUUCUACAGUCCGACGAUCUGUGUGCUAAAGUCCCAGAUGAAAAGUCUUACAGUCUCAGAACUGGUACCAAAAAUGGAGAGUAACAUCACCAUCUCAGCAUCCUUUAAAAGCGAGAACAGAAUCAAAACAAAACAAAAACAACAGAGGAUUGAGCAUCA
B13: chr8:61654917:61654918:+_ENSG00000171316_ENST00000423902|hu_mus|motif|central (ssRNA)
RNA: GGGAGUUCUACAGUCCGACGAUCAUUCAUUGGAGUACUGUUUGUAAGGCCUAAAUUUUGAUUCAUCCCUGUACUGUUAACGGAUCCCUGAUUUAGGUUACUGUAAGGAUAUCGAGAAUACUGCCCUGAGUUGUUUACAGUAGGCAACAGAGGAUUGAGCAUCA
B14: chr5:133537698:133537699:-_ENSG00000113575_ENST00000481195|hu_hu|FALSE|FALSE (ssRNA)
RNA: GGGAGUUCUACAGUCCGACGAUCGCUCUCAUGAUUCCCUCGAAGAAUGGUGAUGCGUUCACGGUAACGAACCUUAAGAGCUACAAGCAGUGUAACUGUUUCAACUGAAUAAUAUCCUCUGUCAACAUAAUCUCCCAUAAACAACAACAGAGGAUUGAGCAUCA
B15: chr3:179287964:179287965:+_ENSG00000136518_ENST00000429709|hu_hu|hu_hu_hu_mus_True|18_38 (ssRNA)
RNA: GGGAGUUCUACAGUCCGACGAUCCUUGAGUGGUGAGAUGGCCUCCAUGUUCUCCCUGGGCACGCGGAGGGCAUUGGUGUCUAUGUAGUAGGUGGGCCCGCCUUGUUUGCCUUUGUCGCCAUCUAUUUCCAUCAUUGUACUUCCCAACAGAGGAUUGAGCAUCA
B16: 130672799_130674977_855_CDS_ENSG00000017260_ENST00000359644|human|control|control (ssRNA)
RNA: GGGAGUUCUACAGUCCGACGAUCCAUGCUCUUCUGCAGAGGGGUUUUUGGUGCCUCUUCUGCUUGCAUCAUUUUAAAAACCUCCCCAAAUUCAGAAUUUUCUCCUGUUCCAAUGACAACACCCUUUGCUUUGCCACAUCUGACCAACAGAGGAUUGAGCAUCA
B17: chrX:140365796:140365797:-_ENSMUSG00000031285_ENSMUST00000033642|mus_mus|mus_mus_mus_hu_False|28_78 (ssRNA)
RNA: GGGAGUUCUACAGUCCGACGAUCCUUCUCAUUACUCAGUGCCUGCAAGGUUCUGGUUCUGUAGAAGCUACAGUGGGCGCUGUGAGUGGGGCUAGGCAACCCAUUCAUCCGUGACCCUCGCAUGUUCCUGGAUGUCUUAUCUCUCAACAGAGGAUUGAGCAUCA
B18: chr19:60011576:60011577:-_ENSMUSG00000040022_ENSMUST00000171986|mus_mus|FALSE|FALSE (ssRNA)
RNA: GGGAGUUCUACAGUCCGACGAUCUUUUGCUGUAAACGGGUUAGUUGACUCAUAUUCAAAAUAGUCCUGCCGGUUUUCACUAAAAGCACUAGGUGAUUUCAAGUCACAUGGGCUAUCAGAUCCACCAUUGUUCAGCUUGUCAGGCAACAGAGGAUUGAGCAUCA
B19: chr2:163839828:163839829:+_ENSMUSG00000018326_ENSMUST00000018470|mus_mus|motif|central (ssRNA)
RNA: GGGAGUUCUACAGUCCGACGAUCGGAGUUGGACACCGUGGUUUGUUUAUUUUCUCCGGAUGCAACUUCAGAAAGAUACCGGAAGUAGUCUCCUUUCAUUUUUAAGUAGAACACUUUGCUUUCUGCCUGGGUGGCAUUGAGAAUCAACAGAGGAUUGAGCAUCA
B20: 54362245_54362365_1468_3pUTR_ENSG00000091157_ENST00000357574|human|control|control (ssRNA)
RNA: GGGAGUUCUACAGUCCGACGAUCAACUAUGCUUCCAUCUUCACGACCACAAACAAGUCGUCCAUGUGCUGGUAUGUACACACUUGCAGUUACUUUAAGAGGUUCAUUACUAUUGGGAAUCACACUCAGCUGAUCUAUAAUUCCCAACAGAGGAUUGAGCAUCA
B21: chr2:217001844:217001845:+_ENSG00000079246_ENST00000392132|hu_hu|hu_hu_hu_mus_False|98_98 (ssRNA)
RNA: GGGAGUUCUACAGUCCGACGAUCACCAACUUGAGGAUUAGCUCUUUUGUCAUAAGCAUAUCGGACGAUGGCGACCAUGUUUAACUCAUCCAAAGCAUGAACGAGAGAGGAAAGGGCAACAGCUGCCGCCUCAUCAUCCUUUGCCAACAGAGGAUUGAGCAUCA
B22: chr1:225611761:225611762:-_ENSG00000143815_ENST00000272163|hu_mus|hu_hu_hu_mus_True|1_1 (ssRNA)
RNA: GGGAGUUCUACAGUCCGACGAUCCCAGGCCAUCGGCCUCUGACCACUUCACCCUCAACAAACUUCCUACUUGGCAUUUUCUAAAAUUAGUCUGGCCGCGCUCCGGCGGGAACUCCAGCCACUCCAGGACAGUCACCCGCACAGCAACAGAGGAUUGAGCAUCA

target: T1, UNK ZnF1-3; test: nsRBNS (natural sequence RNA bind-n-seq); RBNS binding buffer (assumed for nsRBNS): 25 mM Tris pH 7.5, 150 mM KCl, 3 mM MgCl2, 0.01% Triton X-100, 500 ug/ml BSA, 20 U/ml SUPERase-In, 4 C; UNK is unkempt and MSI1 is Musashi-1; names of the RNAs are library labels; protein concentration not given here; high values mean tight binding

First: B1
Second: B2
The binding signal of the first is higher: 1.21 enrichment R for the first, 0.751 enrichment R for the second.

Compared with B3, B4 is higher in binding signal: 0.648 enrichment R for the first, 1.15 enrichment R for the second.

Compared with B5, B6 is higher in binding signal: 0.843 enrichment R for the first, 1.37 enrichment R for the second.

Going from B7 to B8, the binding signal falls from 0.755 enrichment R to 0.403 enrichment R.

Going from B9 to B10, the binding signal rises from 1.11 enrichment R to 1.63 enrichment R.

First: B11
Second: B12
The binding signal of the first is lower: 0.999 enrichment R for the first, 2.36 enrichment R for the second.

Going from B13 to B14, the binding signal rises from 0.623 enrichment R to 1.09 enrichment R.

Compared with B15, B16 is higher in binding signal: 0.585 enrichment R for the first, 0.738 enrichment R for the second.

Compared with B17, B18 is higher in binding signal: 0.636 enrichment R for the first, 0.689 enrichment R for the second.

First: B19
Second: B20
The binding signal of the first is lower: 0.645 enrichment R for the first, 0.66 enrichment R for the second.

Going from B21 to B22, the binding signal falls from 2.52 enrichment R to 1.23 enrichment R.
